In PMC4383008:
Positions count from the first letter of the chain named. These are yes or no findings as the source states them, for the method shown. Binding seen in cells or lysates may run through a third protein. Some entries that bind do so weakly or less than the wild type. For part of these data: Tags and fused reporters may be left off the sequences shown. Values belong to the substance of their own block, whether it stands above or below them.

Chains of the proteins cited; added tags and fusions are not shown. Lines headed by an entry give the natural chain unless they say otherwise; changes in a name come on top. A line that says so, or that is headed by a name, gives the form on record, which may keep a tag or linker.
UniProt Q9EP80: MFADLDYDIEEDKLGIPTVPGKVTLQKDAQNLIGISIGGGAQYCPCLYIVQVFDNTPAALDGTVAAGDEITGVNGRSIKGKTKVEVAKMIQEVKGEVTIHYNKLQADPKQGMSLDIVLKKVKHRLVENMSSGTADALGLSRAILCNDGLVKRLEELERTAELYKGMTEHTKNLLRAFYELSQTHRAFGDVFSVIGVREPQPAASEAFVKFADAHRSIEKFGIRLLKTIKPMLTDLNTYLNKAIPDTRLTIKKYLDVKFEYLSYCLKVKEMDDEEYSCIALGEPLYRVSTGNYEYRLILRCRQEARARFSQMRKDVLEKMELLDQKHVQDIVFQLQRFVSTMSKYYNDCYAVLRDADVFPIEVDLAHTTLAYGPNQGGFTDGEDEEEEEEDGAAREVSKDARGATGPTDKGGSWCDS
full-length myc-PICK1 with the K27D28AA substitutions (myc-KDAA) (Q9EP80, form named): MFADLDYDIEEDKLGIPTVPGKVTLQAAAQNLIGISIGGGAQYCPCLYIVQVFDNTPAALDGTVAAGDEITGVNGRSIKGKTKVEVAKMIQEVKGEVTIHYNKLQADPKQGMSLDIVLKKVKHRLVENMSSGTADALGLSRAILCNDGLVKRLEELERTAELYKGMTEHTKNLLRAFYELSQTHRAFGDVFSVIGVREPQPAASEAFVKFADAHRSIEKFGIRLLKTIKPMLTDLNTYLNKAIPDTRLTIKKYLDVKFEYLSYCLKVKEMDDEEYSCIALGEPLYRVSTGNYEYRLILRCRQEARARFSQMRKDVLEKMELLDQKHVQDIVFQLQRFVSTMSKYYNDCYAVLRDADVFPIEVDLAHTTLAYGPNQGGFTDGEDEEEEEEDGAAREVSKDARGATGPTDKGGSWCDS
UniProt Q62083: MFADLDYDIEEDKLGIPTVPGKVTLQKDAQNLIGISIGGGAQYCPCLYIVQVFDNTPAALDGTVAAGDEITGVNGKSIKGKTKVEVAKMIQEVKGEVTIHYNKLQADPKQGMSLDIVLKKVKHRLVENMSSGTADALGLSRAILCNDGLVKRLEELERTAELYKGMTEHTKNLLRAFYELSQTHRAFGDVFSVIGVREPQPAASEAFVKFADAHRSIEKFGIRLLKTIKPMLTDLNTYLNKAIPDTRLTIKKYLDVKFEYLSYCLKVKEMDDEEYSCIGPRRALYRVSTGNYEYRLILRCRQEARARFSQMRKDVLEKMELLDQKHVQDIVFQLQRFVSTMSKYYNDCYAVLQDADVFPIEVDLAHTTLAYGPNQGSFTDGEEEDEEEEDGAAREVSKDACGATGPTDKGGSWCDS

What was measured:
GST-RAB39B (mouse) [1] = biological target: T1, GST-RAB39B (mouse) (UniProt Q8BHC1); test: pull-down; 40 μg GST-RAB39B on glutathione-Sepharose 4B beads in presence of GTPγS, 10 μl of the in vitro translational reaction of PICK1, 3 h at 4 °C; only the target purified
T1 sequence: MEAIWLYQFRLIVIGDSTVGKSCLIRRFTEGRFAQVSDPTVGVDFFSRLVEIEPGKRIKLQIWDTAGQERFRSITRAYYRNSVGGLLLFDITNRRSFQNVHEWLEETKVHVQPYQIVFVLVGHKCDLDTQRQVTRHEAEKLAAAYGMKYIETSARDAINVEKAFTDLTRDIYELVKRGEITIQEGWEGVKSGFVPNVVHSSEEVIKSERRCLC

GST-RAB39A = biological target: T2, GST-RAB39A (UniProt Q8BHD0); test: pull-down; GST-RAB39A as bait; input and nucleotide not told in the text (Supplementary Fig. 1d); only the target purified
T2 sequence: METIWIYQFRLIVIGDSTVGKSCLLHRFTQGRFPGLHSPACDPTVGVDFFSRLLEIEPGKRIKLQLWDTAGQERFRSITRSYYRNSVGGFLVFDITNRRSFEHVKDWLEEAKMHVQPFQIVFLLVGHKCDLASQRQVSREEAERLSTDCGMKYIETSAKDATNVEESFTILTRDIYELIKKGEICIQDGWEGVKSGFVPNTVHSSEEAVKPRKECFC

GST-RAB39B (mouse) [2] = biological target: T1, GST-RAB39B (mouse); test: pull-down; 40 μg GST-RAB39B on glutathione-Sepharose 4B beads in presence of GTPγS, 8 mg mouse brain lysate (HKT or RIPA buffer), 3 h at 4 °C; only the target purified
GST-RAB39B Q68L (mouse) = biological target: T3, GST-RAB39B Q68L (mouse) (UniProt Q8BHC1); test: pull-down; 40 μg GST-RAB39B S22N or GST-RAB39B Q68L on glutathione-Sepharose 4B beads, 8 mg mouse brain lysate (HKT or RIPA buffer), 3 h at 4 °C; only the target purified
T3 sequence: T1 sequence with Q68L

GST-PICK1 = GST-PICK1 (UniProt Q9EP80); test: pull-down; 80 μg GST-PICK1 on glutathione-Sepharose 4B beads, 16 mg mouse brain lysate in HKT buffer, 3 h at 4 °C; only the target purified
GST-RAB39B (mouse) [3] = biological target: T1, GST-RAB39B (mouse); test: pull-down; 40 μg GST-RAB39B on glutathione-Sepharose 4B beads in presence of GTPγS, 2 mg lysate (RIPA buffer) of COS7 cells expressing PICK1 constructs, 3 h at 4 °C; only the target purified

- binding (GST-RAB39B (mouse) [1]): binds
Substance: PICK1 in vitro transcribed and translated (pGEM-PICK1) (from UniProt Q9EP80 1-416)

- binding (GST-RAB39A): no binding
- binding (GST-RAB39B (mouse) [2]): binds
- binding (GST-RAB39B Q68L (mouse)): binds
Substance: PICK1, endogenous in mouse brain lysate (from UniProt Q62083 1-416)

- binding (GST-PICK1): binds
Substance: PKCα, endogenous in mouse brain lysate (from UniProt P20444 1-672) (enzyme)

- binding (GST-RAB39B (mouse) [3]): no binding
Substance: flag-tagged PICK1 lacking the PDZ domain (flag-Δ121) (from UniProt Q9EP80 122-416) (domain or fragment)

- binding (GST-RAB39B (mouse) [3]): no binding
Substance: full-length myc-PICK1 with the K27D28AA substitutions (myc-KDAA) (from UniProt Q9EP80 1-416)

- binding (GST-RAB39B (mouse) [3]): binds
Substance: full-length myc-PICK1 with the K83A substitution (myc-K83A) (from UniProt Q9EP80 1-416)

- binding (GST-RAB39B (mouse) [3]): binds
Substance: myc-tagged PDZ domain of PICK1 (myc-PDZ; aa 23–99) (from UniProt Q9EP80 23-99) (domain or fragment)
